Each structure is given as a SMILES string. Some of the results follow.

The subject of the assay is T1, C. trachomatis L2/434/Bu expressing GFP (CTL2-GFP).
T1 construct: L2/434/Bu GFP intracellular growth in HeLa cells
More on the design: species or system HeLa; C. trachomatis total inclusion area by high-content imaging, normalised to DMSO. Conditions: total inclusion area; 28.5 h, 10 µM; inhibitor. In short, it runs like this:
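Post-fluorescence-read fixation, DNA staining with Hoechst and high-content imaging; GFP inclusion area and number per well, and nuclei counts, used as proxies for bacterial growth and host viability.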
Take `CC(C)(CNC(=O)c1ccc(=O)n(CC(=O)NC2CCCCC2)c1)c1ccc(F)cc1` [CBK285984]: the “% of control remaining” value amounted to 98.268. In the case of `CCn1cc(S(=O)(=O)NC2(c3ccc(F)cc3)CC2)c(C)n1` [CBK282837] it was 86.3727; in that of `Cc1cccc(CNc2nccnc2-c2cccc(Cl)c2)c1` [CBK037527], 114.593. In the case of `O=C(Nc1ccc([C@@H](O)[C@H]2COCC(=O)N2Cc2ccc(F)cc2)cc1)c1cccnc1` [CBK289062] it was 118.682; in that of `COc1cc(F)cc(OC2CCNCC2)c1NC(=O)c1c(-c2ccccc2)noc1C` [CBK050350T], 86.0264; in that of `CN(c1ncccc1CNC(=O)c1c[nH]c(=O)c(Cl)c1)C1CCCCC1` [CBK307267], 72.97. The result for `CCCCCCC1N=NC(c2ccc(F)cc2)=CN1O` (centres unmarked) [CBK019298] reads 67.8299; that for `O=S(=O)(c1ccc(C(F)(F)F)cc1Cl)N1CCCN(Cc2ccnc3ccccc23)CC1` [CBK062942], 98.5141. `COc1ccc(NC(=O)N2CCCCC2c2cccnc2)cc1` (centres unmarked) [CBK293947]: the “% of control remaining” value is given as 105.571. For the molecule `COC(=O)c1cc(NC(=O)c2cc(-c3ccc(C)o3)nc3ccccc23)cc(C(=O)OC)c1` [CBK265400], the “% of control remaining” value worked out at 107.142. The result for `O=C(c1[nH]nc2c1CCCC2)N1CCn2cc(C(F)(F)F)nc2C1` [CBK283915] reads 86.2332. With `CCC(C)NC(=O)CN1CCN(Cn2nnc3ccccc3c2=O)CC1` (centres unmarked) [CBK305032], the “% of control remaining” value is 84.2331.

Turning to `CN1CCC[C@H]1C(=O)Nc1cc(-c2ccncc2)c[nH]c1=O` [CBK116587], the “% of control remaining” value stood at 86.9127. The result for `CSCC(=O)N1CC[C@H](NC(=O)NC2CCCCC2)[C@H]1C(=O)N1CCC[C@@H]1C(N)=O` [CBK289265] reads 98.6595; that for `Cc1cc(S(=O)(=O)N2CCN(CCO)C(C)C2)sc1Cl` (centres unmarked) [CBK304074], 30.8479. In the case of `O=C(O)c1cccc(OCCNS(=O)(=O)c2ccc(N3CCCC3=O)cc2)c1` [CBK299779] it was 93.2101; in that of `CC(C)n1c(=O)n(CC(=O)NCCc2ccccc2)c2cccnc21` [CBK283701], 94.1324; in that of `Nn1c(SCc2ccc(C(=O)O)cc2)nnc1-c1ccccn1` [CBK267553], 90.7444. The result for `COc1ccccc1-c1cccc(C2CCCN(C(=O)Cc3c[nH]c4ccccc34)C2)n1` (centres unmarked) [CBK286143] reads 90.1698. Regarding `CCOc1ccc(C(=O)NC(=S)Nc2cccc(C(=O)O)c2C)cc1Br` [CBK265100], the “% of control remaining” value was determined as 67.9274.

For `CCN(CC)CCN1CCN(c2cncc(-c3cccs3)n2)CC1` [CBK065703], the “% of control remaining” value was 99.6057. Consider `O=S(=O)(N1CCOCC1)N1CCN(CC(O)COc2ccc(-c3ccccc3)cc2)CC1` (centres unmarked) [CBK269301], for which the “% of control remaining” value is 105.617. In the case of `CC1CCc2n[nH]c(C(=O)NCCCc3ccco3)c2C1` (centres unmarked) [CBK283153] it was 99.6778. The result for `CC(C)(C)OC(=O)C1(NC(=O)Cc2cn3ccccc3n2)CCCC1` [CBK305500] reads 109.085.

For `CC(C)(C)OC(=O)N1CCN(S(=O)(=O)c2ccc(Br)cc2)CC1` [CBK143623], the “% of control remaining” value came to 80.6152. In the case of `O=C(C[C@@H]1CCNC[C@@H]1Cc1cc(-c2ccccc2)on1)N1CCN(c2ccccc2)CC1` [CBK289148] it was 96.1938; in that of `COc1ccc(CC(=O)NCC(=O)N2CCC3(CC2)NCCc2nc[nH]c23)cc1` [CBK287997], 85.9507. As to `O=C(O)CC1S/C(=N/N=C/c2ccc(-c3ccc(Cl)cc3)o2)NC1=O` (centres unmarked) [CBK264595], the “% of control remaining” value was 88.8931.

`CC1CC1C(=O)NCCc1c[nH]c2cccc(C3(O)CCOCC3)c12` (centres unmarked) [CBK284840]: the “% of control remaining” value was determined as 102.386. The result for `CCCc1nc(SC)ncc1C(=O)NCc1ccccn1` [CBK291190] reads 108.591.

For the molecule `COCOc1ccc(-c2nc(-c3ccco3)cnc2N)cc1` [CBK064108], the “% of control remaining” value worked out at 79.6298. In the case of `CCOC(=O)c1cnc(SCC(=O)N2CCN(c3ccccc3)CC2)nc1N` [CBK269159] it was 92.8795; in that of `COc1ccc(OCC(=O)Nc2ccc3oc(-c4ccc(OC)c(Br)c4)nc3c2)cc1` [CBK263913], 13.5919. In the case of `O=C(Cn1nnc2ccccc21)NCCN1CCCC1` [CBK267200] it was 107.21.

As to `CCOc1ccccc1NC(=O)CCCN1C(=O)c2ccccc2C1=O` [CBK265608], the “% of control remaining” value is 85.0856. The result for `CC1(C)CC(=O)c2sc(NC(=O)CN3C(=O)CCC3=O)nc2C1` [CBK287558] reads 100.69; that for `O=C(Nc1cccc(C(F)(F)F)c1)Nc1cc(N2CCNCC2)c2occc2c1` [CBK061746C], 56.0657; that for `O=C(NN=C1CCCCCCCCCCC1)c1cc2ccccc2cc1O` [CBK261706], 98.8054. Take `COc1ccc2cc(CNc3ccc(Oc4ccccc4)cc3)c(=O)[nH]c2c1` [CBK286158]: the “% of control remaining” value was 114.551.

On to `O=C(O)C(CCCN1CCCC1)(c1ccccc1)c1ccccc1` [CBK022695G], for which the “% of control remaining” value is given as 71.9314.

With `CCN1CCC2(CC1)CN(CC(N)=O)c1ccccc12` [CBK126798], the “% of control remaining” value was determined as 101.682. In the case of `CC1CCc2c(sc(NC(=S)NC(=O)c3cc4ccccc4o3)c2C#N)C1` (centres unmarked) [CBK266319], the “% of control remaining” value came to 140.405. Regarding `Cc1cc(NC(=O)N2CCN(c3ncccc3C#N)CC2)no1` [CBK305901], the “% of control remaining” value is 52.791.

Take `CCOC(=O)CN1CCC(Oc2cncc(OCc3cccnc3)n2)C1` (centres unmarked) [CBK084462]: the “% of control remaining” value turned out to be 105.982. In the case of `O=C(NCCN1CCCCC1)C1CC(=O)N(c2ccccc2F)C1` (centres unmarked) [CBK305148], the “% of control remaining” value was 35.057. On to `CC1CCN(S(=O)(=O)c2cc(C(=O)OCC(=O)c3ccccc3)c(Cl)cc2Cl)CC1` [CBK264470], for which the “% of control remaining” value came out at 100.723. In the case of `Cc1ccc(-c2ncc(OCc3ccccc3)nc2N)c(C)c1` [CBK145129] it was 74.2428. In the case of `CC(C)C(=O)NCCN1CCOCC1` [CBK034322] it was 50.1253; in that of `COC(=O)CCc1ccc(S(=O)(=O)N2CCN(Cc3csc(-c4ccccc4)n3)CC2)cc1` [CBK062812], 88.9303; in that of `OC(COc1cccc2c1CCCC2)CN1CCC(Cc2ccccc2)CC1` (centres unmarked) [CBK003829], 51.2942.

(Values after paper PMC12040169 (PLOS Biology, 2025).)
